# Hit rate of the full screen: of about 48,000 compounds, about 1,200 (2.5%) were called active. Roughly 2% stayed inconclusive and do not appear here.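 Rule for the calls: active = activation of at least 60% and not above a set upper limit (about 1 call in 100 departs from these limits); inconclusive = activation of 40% to 60%, or above that upper limit; inactive = activation under 40%.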 This is one part of the list.
# Target: Probable G-protein coupled receptor 32 (Homo sapiens) (UniProt O75388)
# Test: qHTS for Agonists of Human Resolvin D1 Receptor DRV1
# Details: CHO-K1 GPR32 beta-arrestin PathHunter luminescence, 90 min; at 76.9 µM; stronger effect = higher value; zero percent set by DMSO-only wells
# How it was run: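 Using DMSO wells as EC0, agonist-induced signal was taken as chemiluminescence from beta-Gal reconstituted upon beta-arrestin recruitment to GPR32 in CHO-K1 cells after 90 min compound treatment.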
# Chain of UniProt O75388 (O75388 whole entry, looked up): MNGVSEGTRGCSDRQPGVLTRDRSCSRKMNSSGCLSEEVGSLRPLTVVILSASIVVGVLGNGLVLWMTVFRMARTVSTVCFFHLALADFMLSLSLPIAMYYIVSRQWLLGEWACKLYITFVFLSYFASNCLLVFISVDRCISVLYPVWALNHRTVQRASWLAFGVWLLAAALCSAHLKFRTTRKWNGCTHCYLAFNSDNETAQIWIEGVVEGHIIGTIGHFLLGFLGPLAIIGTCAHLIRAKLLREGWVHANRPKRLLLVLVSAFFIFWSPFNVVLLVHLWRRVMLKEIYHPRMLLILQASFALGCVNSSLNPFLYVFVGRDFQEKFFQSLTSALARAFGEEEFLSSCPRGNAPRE
row,SMILES,activation
1,Cc1cc(C)c2c(C)c(C(=O)N3CCC(c4nc5ccccc5s4)CC3)oc2c1,inactive: 8.21%
2,COc1cc(C2c3c(oc4ccc(C)cc4c3=O)C(=O)N2Cc2ccc(F)cc2)ccc1O (configuration not stated),inactive: -10.9%
3,Cc1nc2c3ccccc3nc(NNC(=O)CCC(=O)N3CCN(c4ccccc4F)CC3)n2n1,inactive: -7.41%
4,Cc1ccc(NC(=O)CCC(=O)N2CCOc3ccccc32)c(Cl)c1,inactive: -6.33%
5,CC1(C)O[C@@H]2C[C@H]3[C@@H]4C[C@H](F)C5=CC(=O)C=C[C@]5(C)[C@H]4[C@@H](O)C[C@]3(C)[C@]2(C(=O)CO)O1,inactive: -9.58%
6,Cc1ccc(C(=O)Nc2ccccc2F)cc1S(=O)(=O)N1CCOCC1,inactive: 2.32%
7,N#Cc1ccccc1NC(=O)C(=O)NCC(c1ccc2c(c1)OCO2)N1CCN(c2ccccc2)CC1 (configuration not stated),inactive: 3.48%
8,Cc1nc2cccnc2n1-c1cccc(C(=O)NCCc2ccc(Cl)cc2)c1,inactive: 2.51%
9,Cc1c(C(=O)Nc2ccc(Br)cc2F)sc2ncnc(N(C)C3CCCCC3)c12,inactive: -5.77%
10,CCCCN(CC)C(=O)Cn1c(=O)n(-c2ccc(OCC)cc2)c(=O)c2c3c(sc21)CCCC3,inactive: -16.4%
11,O=C(Nc1ccc2nc(SCC(=O)N3CCCc4ccccc43)sc2c1)c1ccc(F)cc1,inactive: -14.6%
12,COc1cc(CN2CCc3nc(N4CCN(c5ccccc5F)CC4)ncc3C2)ccc1OC(C)C,inactive: 1.03%
13,CCOC(=O)c1c(C)[nH]c(C)c1S(=O)(=O)NCC(=O)N(C)c1ccc(C)c(C)c1,inactive: -4.6%
14,O=C(Nc1c(C(=O)c2ccccc2)oc2ccccc12)c1cc(=O)c2ccccc2o1,inactive: -1.99%
15,Cn1cnc(S(=O)(=O)N2CCC(C(=O)N3CCN(c4cccc(C(F)(F)F)c4)CC3)CC2)c1,inactive: -5.9%
16,CSc1ncc(C(=O)Nc2ccccc2C(=O)c2ccccc2)c(C)n1,inactive: -5.34%
17,CCOC(=O)c1cnc2c(OC)cccc2c1Nc1cccc(O)c1,inactive: -40.4%
18,CC(C)(C)c1ccc(NC(=O)CSc2nnc3scc(-c4ccccc4)n23)cc1,inactive: 18.2%
19,COc1ccc(NC(=O)CSc2nc(-c3ccccc3)nc3cc(=O)[nH]n23)cc1,inactive: 13%
20,CCOC(=O)c1c(C)oc2nc(C)nc(NCc3cccc(OC)c3)c12,inactive: 4.34%
21,CCCCN(CC)C(=O)Cn1nc(C)c2c(C)n(-c3ccccc3)nc2c1=O,inactive: -4.69%

row,SMILES,activation
1,O=C(c1ccccc1)c1ccc2nc(Nc3ccccc3Cl)c3nncn3c2c1,inactive: -18%
2,CCOCN(C(=O)CSc1nc2ccccc2[nH]1)c1c(C)cccc1CC,inactive: 6.84%
3,Cc1ccc(N2CC(C(=O)Nc3ccc(Cl)cc3Cl)CC2=O)cc1 (configuration not stated),inactive: -24.1%
4,Cc1cccc(Cn2c(SCc3ccc(C(=O)NC4CCCCC4)cc3)nc3cccnc32)c1,inactive: -13.6%
5,COc1ccccc1CNC(=O)CCCn1c(=O)c2ccccc2n(Cc2ccccc2F)c1=O,inactive: -6.65%
6,CCOC(=O)c1cc(OC(=O)c2ccc(OC)c(OC)c2)n(-c2ccccc2)n1,inactive: 4.83%
7,CCn1c(=O)cc(SCC(=O)N2CCN(c3cc(C)ccc3C)CC2)c2ccccc21,inactive: 35.4%
8,COc1ccccc1NC(=O)CCNS(=O)(=O)c1ccc2c(c1)CCCC(=O)N2,inactive: 25%
9,CCOc1ccccc1CNC(=O)c1cnc2sc(N3CCC(C)CC3)nn2c1=O,inactive: -10.7%
10,O=C(CSc1nnc(-c2ccccc2)o1)N1CCCc2ccccc21,inactive: -12.7%
11,CN(Cc1cc(Br)cc(Br)c1N)C1CCCCC1,active: 95.3%
12,Cc1nn(C(C)C(=O)NCc2cccc(F)c2)c(=O)c2c1sc1ccccc12 (configuration not stated),inactive: -14.9%
13,COc1ccc(C(=O)Nc2nnc(S(=O)(=O)N3CCOCC3)s2)cc1,inactive: 14.9%
14,CCc1ccc(-c2csc(-c3cc4cc(Br)ccc4oc3=O)n2)cc1,inactive: -1.77%
15,CCN(CC)C(=O)Cn1cc(SCC(=O)Nc2ccc(C)cc2)c2ccccc21,inactive: -4.58%
16,CCOC(=O)N1CCc2c(sc3c2c(=O)n(-c2ccc(Cl)cc2)c(=O)n3CC(=O)Nc2ccccc2)C1,inactive: -11.7%
17,Cc1ccc(C)c(N2CCN(C(=O)Cn3nc(Cc4cccnc4)c4ccccc4c3=O)CC2)c1,inactive: -57.8%
18,COc1ccc(C)cc1NC(=O)C(NS(=O)(=O)c1cccc2nsnc12)c1ccccc1 (configuration not stated),inactive: -30.9%
19,Nc1c(C(=O)NCc2ccccc2)nnn1Cc1cccc(Br)c1,inactive: -19.2%
20,Cc1cccc(NC(=O)Cn2c(=O)n(CCC(=O)N3CCc4ccccc4C3)c(=O)c3ccccc32)c1,inactive: -5.61%
21,CSc1ccc(CCNC(=O)c2cc3c(-c4ccccc4F)nn(C)c3s2)cc1,inactive: 0.987%
